For 20 molecules, TGI and GI50 results are on record in PubChem BioAssay (NCI).

The structures appear in SMILES notation.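 Five compound concentrations were applied to cells in 96-well plates for 48 hours; endpoints were derived by simple linear interpolation of the resulting dose-response curve. The concentration for 50% growth inhibition is given as GI50. TGI marks complete inhibition of growth.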 Some results are limits rather than exact numbers.

The assay has as its system NCI-H322M lung. The experiment in a line: DTP human tumour cell line panel, 48 h.
For orientation: TGI means the concentration at which net growth stops. Higher therefore signals less potent growth arrest. Molecule `COc1ccc2c(c1)c1c(n2CCN2CCCCC2)-c2cccc(OC)c2CC1` yielded a TGI of 55 µM. Broadly, the GI50 is the concentration that inhibits growth by half. For `FC(F)(F)Oc1cccc(-c2cc(NCCCCCCNc3cc(-c4cccc(OC(F)(F)F)c4)nc4ccc(N5CCCC5)cc34)c3cc(N4CCCC4)ccc3n2)c1`, the GI50 is 1.77 µM and the TGI was 3.18 µM. In turn, `Cc1c(N2CCOCC2)nc2ccc(Cl)cc2c1-c1ccccc1` showed a TGI greater than 100 µM. Same read-out and setting: under `CCOC(=O)c1c(N2CCCC2)[nH]c(=O)c(C(c2ccc(OC)cc2)c2c(O)c(C(=O)OCC)c(N3CCCC3)[nH]c2=O)c1O` stands greater than 100 µM. As for `O=[N+]([O-])c1ccc(Cl)c2c([N+](=O)[O-])cccc12`, the total growth inhibition concentration (TGI) is greater than 10 µM. As for `O=C1NC(=N[C@@H](CO)c2ccccc2)S/C1=C\c1ccc2ncccc2c1`, the GI50 was 4.53 µM and the TGI was greater than 23.6 µM. With `Cn1nc(-c2ccc(S(=O)(=O)/N=C(\NN)Nc3ccc(Cl)cc3)s2)cc1C(F)(F)F`, the TGI is 29.4 µM.

With `COc1ccc2sc3c(NCCCN)nc4ccccc4c3c(=O)c2c1`, the GI50 was 1.6 µM and the TGI came out at 3.03 µM. The molecule `COc1cccc(C2c3cc4c(cc3OC(O)C2C)OCO4)c1OC` (stereo unspecified) had a TGI of 46.6 µM. `COC(=O)[C@]1(C)CCC[C@@]2(C)C1CC[C@]13C=C(C(C)C)[C@H](CC21)CC3(Cl)C#N` (stereo partly specified): the TGI is greater than 100 µM. Regarding `COC(=O)c1ccccc1C1CN=NC12Cc1c(ccc(C)c1C)C2=O` (stereo unspecified), the TGI is greater than 100 µM. The same measure, in the same setting: the result for `N#CNC(N)=NCc1ccccc1` reads greater than 100 µM; that for `Nc1ncnc2c1nnn2C1C=CC(CP(=O)(O)O)C1` (stereo unspecified), greater than 100 µM. In the case of `CCN=c1sc2c(n1NC(=O)c1cc3ccc1CCc1ccc(cc1)CC3)C(=O)c1ccccc1C2=O`, the GI50 was 2.62 µM and the TGI amounted to 7.25 µM.

Molecule `CCOC(=O)/C=C/c1nc(C#N)c(N)o1` yielded a TGI greater than 100 µM.

As for `CCN(CC)Cc1cc(Nc2nc(NC3CCC(N(C)C)CC3)c3ccccc3n2)ccc1OC` (stereo unspecified), the GI50 was 12.7 µM and the TGI was 34.3 µM. Take `COC(=O)/C=C(/C(=O)OC)C1(C)c2cc(C(=O)OC)c(C(=O)OC)c(N)c2C(=N)N1c1ccccc1` (stereo unspecified): the TGI is greater than 100 µM. As to `COCC([C@@H](O)C(O)C(=O)NCC[C@@H](C)c1nc(/C=C/CC2OC3(C[C@H](O)C2C)OC(C(C[C@H](O)C(C)[C@H](O)C(C)/C=C(C)/C(C)=C/C=C/C(C)=C/C#N)OC)[C@@H](OP(=O)(O)O)C3(C)C)co1)N(C)C` (stereo partly specified), the TGI amounted to 0.000399 µM.

For the molecule `COc1cc2c(cc1Nc1nc(N3CCc4ccccc43)c3cc[nH]c3n1)N(C(=O)CN(C)C)CC2`, the GI50 was 3.63 µM and the TGI was 8.34 µM. With `O=C(/C=C/c1ccc(Cl)cc1)Oc1ccc(C=C2CCC/C(=C\c3ccc(OC(=O)/C=C/c4ccc(Cl)cc4)cc3)C2=O)cc1`, the TGI was greater than 100 µM.
